# Assay results from the supplement of paper PMC4166925.
# ± gives the standard deviation of the averaged measurements. Over roughly 33,000 sequences, “E-score (dimensionless, -0.5 to 0.5)” has its median near -0.046; the highest 2% begin near 0.36. The list shows a part of the results.
# Tested on: T1, SpTbr T-box DNA-binding domain (GST fusion)
# T1 sequence: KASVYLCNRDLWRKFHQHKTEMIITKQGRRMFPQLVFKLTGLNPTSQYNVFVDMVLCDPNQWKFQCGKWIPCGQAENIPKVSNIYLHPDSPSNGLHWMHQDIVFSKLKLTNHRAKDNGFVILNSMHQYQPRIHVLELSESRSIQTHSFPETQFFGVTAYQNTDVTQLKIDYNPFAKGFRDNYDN
# Assay: PBM E-score of 8-mer (E-score (dimensionless, -0.5 to 0.5)); Tbr is Tbrain of the sea star Patiria miniata (Pm) or the sea urchin Strongylocentrotus purpuratus (Sp); higher = stronger binding preference; most listed sequences are background and not binding sites
# Conditions: the construct has about 5 more residues each side
# Outline: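 Primer extension turned Universal Agilent oligonucleotide arrays double-stranded. They were incubated with 200 nM protein in PBS (pH 7.5); the protein was a GST-fused Tbr T-box DNA-binding domain expressed in BL21 E. coli at 20 °C and purified on glutathione. Every ungapped 8-mer was scored from the scanned, quantified probe intensities, and the Universal PBM Analysis Suite gave each an enrichment E-score averaged over duplicate arrays.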
row,Sequence,PBM E-score of 8-mer
1,GGGACCCC,-0.306 ± 0.0076
2,ACCATCCC,-0.0478 ± 0.032
3,CTTCCCTA,-0.22388 ± 0.00013
4,ACTCCAAA,0.00039 ± 0.0059
5,AGTTGCCA,0.25162 ± 0.00012
6,CCTGTCGA,0.194 ± 0.0047
7,CTGGTAAC,0.0436 ± 0.03
8,AAAATGAG,-0.0804 ± 0.053
9,CACAGGGG,0.0864 ± 0.031
10,CACTGTGC,0.188 ± 0.041
11,AATGACGG,-0.0019 ± 0.0025
12,TGCGAACA,0.419 ± 0.015
13,GGGGAAGA,-0.0658 ± 0.0073
14,ATCGCTAG,0.165 ± 0.0081
15,AAGACAGT,0.0283 ± 0.012
16,AGTAGAAG,0.0206 ± 0.039
17,ACAGGGGC,-0.0909 ± 0.019
18,CAGTGGTA,-0.0561 ± 0.052
19,CCCCGAAC,-0.132 ± 0.03
20,GCACCCAC,0.302 ± 0.034
21,AATCTGGG,-0.0125 ± 0.062
22,ATAAGCGG,-0.0929 ± 0.023

row,Sequence,PBM E-score of 8-mer
1,AAGGGGAA,-0.201 ± 0.055
2,AGCTAGGA,-0.115 ± 0.016
3,AACAGACT,-0.233 ± 0.071
4,ACTAGGAT,-0.2518 ± 0.0023
5,CCCGTACC,0.0296 ± 0.038
6,AAACTGAG,-0.1 ± 0.018
7,AACGATCA,-0.0563 ± 0.006
8,CAGTTAGC,0.151 ± 0.047
9,GTGGCCGA,0.0547 ± 0.071
10,AGCAGGAC,-0.0117 ± 0.031
11,GTGGATTA,-0.0496 ± 0.019
12,CACTCAGA,0.0772 ± 0.046
13,AGTATTTC,-0.217 ± 0.0098
14,GATTCTCC,-0.121 ± 0.055
15,TATGTGGA,0.0114 ± 0.06
16,ATGACCGG,0.0387 ± 0.039
17,CCCCTGAC,-0.122 ± 0.11
18,AAACTCGT,0.0488 ± 0.091
19,CCCTTCAA,-0.0939 ± 0.065
20,ACTCGAGC,-0.333 ± 0.077
21,TAGGAGAA,-0.223 ± 0.026
22,AAATCGGT,-0.118 ± 0.0057

row,Sequence,PBM E-score of 8-mer
1,AACGTTTC,-0.191 ± 0.019
2,CAGTAAAG,-0.119 ± 0.08
3,GGACGACA,0.144 ± 0.043
4,CGCAGAAA,-0.081 ± 0.02
5,GGTAGTGA,0.213 ± 0.071
6,ATTGGCCC,-0.165 ± 0.022
7,CCGCGGAC,0.0516 ± 0.039
8,AACTTAAA,-0.088 ± 0.039
9,ATACTACA,-0.0286 ± 0.013
10,CACCAGCG,0.2487 ± 0.0019
11,AATGAGAG,-0.293 ± 0.063
12,AACACTGT,0.3297 ± 0.0029
13,GACGGAAA,-0.0594 ± 0.066
14,CTTGCCCA,-0.196 ± 0.069
15,AGTCAGTG,0.0623 ± 0.0082
16,AGGAAACC,-0.0492 ± 0.041
17,ACACGGGG,-0.0474 ± 0.022
18,AGCAGCCT,-0.0448 ± 0.072
19,AAATTTCG,-0.129 ± 0.096
20,CCGTAAAA,-0.098 ± 0.007
21,GGGTAAAA,-0.318 ± 0.058
22,TCGTCTCA,0.0855 ± 0.066

row,Sequence,PBM E-score of 8-mer
1,GCATTCGA,-0.109 ± 0.0095
2,CCCCCGCG,-0.138 ± 0.085
3,CAGCAAAA,-0.19 ± 0.1
4,CTCTTACC,-0.252 ± 0.0034
5,CACCAACG,0.188 ± 0.025
6,AAAGCTAC,0.0151 ± 0.032
7,CTCCTCTA,0.1039 ± 0.00011
8,CTTAAAAC,-0.195 ± 0.026
9,CATTAAAG,-0.135 ± 0.015
10,CGCCGGCG,0.1618 ± 0.00064
11,CGCTAGAC,0.0718 ± 0.013
12,AATCGGGT,-0.129 ± 0.062
13,ACAACACC,0.424 ± 0.011
14,GAAGTACC,-0.351 ± 0.049
15,GTCTCGCA,0.256 ± 0.013
16,GGCCCCCC,-0.274 ± 0.021
17,GAAATAGA,-0.169 ± 0.075
18,CAGTCGTA,-0.204 ± 0.044
19,ACATAGGC,-0.0404 ± 0.014
20,CCGATGTA,-0.27 ± 0.043
21,CTTCTACC,-0.18 ± 0.017
22,ATAGCCAC,0.0868 ± 0.081

row,Sequence,PBM E-score of 8-mer
1,TATAGAAA,-0.286 ± 0.067
2,AAAGTACC,-0.222 ± 0.062
3,AGACCGTC,-0.121 ± 0.029
4,CCTCCGCG,0.00477 ± 0.025
5,GTTCGCAA,0.354 ± 0.015
6,AATATCAG,0.0275 ± 0.026
7,ACTATAGT,0.123 ± 0.1
8,CTGCGGGC,-0.0289 ± 0.01
9,CTGCGGCC,-0.274 ± 0.004
10,GCGTCACC,0.327 ± 0.042
11,CAGAAACG,-0.0415 ± 0.054
12,CTGAAATA,-0.0579 ± 0.062
13,AACCTTCC,-0.169 ± 0.048
14,ATCGAAAA,0.0599 ± 0.027
15,AAAGTTTA,-0.03569 ± 0.00033
16,TAATTACA,0.0205 ± 0.0062
17,CGGGCGCA,0.0118 ± 0.04
18,GATGAAAC,-0.101 ± 0.046
19,AAGGCCTG,-0.2793 ± 0.0016
20,AGCGGGGC,-0.0819 ± 0.0051
21,ACCATACG,-0.201 ± 0.029
22,AGCGAATG,-0.0252 ± 0.031
